Results published in PubChem BioAssay AID686978 (National Center for Advancing Translational Sciences (NCATS), 2013).
Values joined by “and” are separate entries in the source; they are usually repeats but may differ in a detail not shown here. Equal entries are not always repeated. The whole screen tested about 420,000 compounds, of which about 64,000 (15%) were called active. Inconclusive results, whose numbers are uncertain, are shown with a selection of clear calls. The call rests on the fitted dose curve; in most records, active means well fitted inhibition curve with a large enough effect; inconclusive means small, poorly fitted or top-dose-only effect; inactive means flat fitted curve, though single readings scatter. Potencies of inconclusive entries are left out as doubtful fits.

Experiment: qHTS for Inhibitors of human tyrosyl-DNA phosphodiesterase 1 (TDP1): qHTS in cells in absence of CPT; further: nearly all actives have a fitted effect of over 55% in size
Settings: DT40 Tdp1-/- hTDP1 cells, no CPT, ATP luminescence, 48 h; activity change, negative = growth inhibition: at 46.2 µM (top of the series) unless noted
Summary of the method: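 Chicken DT40 Tdp1-/- cells complemented with human TDP1, screened without camptothecin (DMSO vehicle only), 400 cells/well. Compounds pin-transferred, cells incubated at 37 °C for at least 48 hr. Growth read as ATP-dependent luminescence (CellTiter-Glo, 30 min at RT).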
On the % scale 0 is the no-effect control and ±100 the full control effect; potency means the concentration at half of the fitted maximal effect; tags describe the fitted curve by direction and shape.

SMILES | Potency | activity change, negative = growth inhibition
CC(=O)Nc1cccc(NC(=O)c2cc([N+](=O)[O-])ccc2N2CCCCC2)c1 | inconclusive [inhibitor, single point] | –
CN1CCN(/N=C/c2ccc(-c3ccc([N+](=O)[O-])cc3Cl)o2)CC1 | inconclusive [inhibitor, single point] | –
CCCCn1c(=O)n(C)c(=O)c2c(C(F)(F)F)cc(-c3ccncc3)nc21 | active: 11.2 µM | –
NNC(=O)c1cc2cc3ccccc3nc2s1 | inconclusive [inhibitor, single point] | –
COC(=O)c1ccc(N2C(c3cccc(OC)c3)=Cc3ccc(F)cc3C2c2c(C)[nH]c3ccccc23)cc1 (configuration not stated) | inconclusive [inhibitor, single point] | –
Cc1ccc(S(=O)(=O)NC2(C(F)(F)F)NC(=O)N(CCc3ccccc3)C2=O)cc1 (configuration not stated) | inactive | –
CCc1cc2c(=O)c(-c3ccc4c(c3)OCCO4)coc2cc1OC(=O)c1ccco1 | active: 20.6 µM | –
COC(=O)CN1C(=S)N(Cc2ccccc2)C(=O)C1CC(=O)Nc1ccc(Br)cc1 (configuration not stated) | inconclusive [inhibitor, single point] | –
O=C1NC[C@@H](c2ccccc2)OC(=O)[C@H](Cc2ccc(F)cc2)C/C=C\C[C@H]1CC(=O)N(CCO)Cc1ccccc1 | active: 16.4 µM | –
O=C1N(Cc2ccccc2)c2ccc(Cl)cc2C1(O)c1c[nH]c2ccccc12 (configuration not stated) | inconclusive [inhibitor, single point] | –
COc1ccccc1NC(=O)Cn1c(SCC(=O)N(C)c2ccccc2)nc2ccccc21 | inconclusive [inhibitor, partial curve] | –
Cc1cc2nc(-c3ccc(OCc4ccccc4Cl)cc3)cc(C(F)(F)F)n2n1 | inconclusive [inhibitor, partial curve] | –
C[C@@H]1CN([C@H](C)CO)C(=O)c2c(c3ccccc3n2C)-c2ccccc2CO[C@H]1CN(C)C(=O)NC1CCCCC1 | active: 25.9 µM | –
COC(C[C@@H](O)[C@@H](C)[C@@H](O)COCc1ccccc1)OC | – | inactive: -2.63%
O=C(NCCn1cc(SCc2ccccc2Cl)c2ccccc21)c1cccs1 | inconclusive [inhibitor, single point] | –
Cc1cc(C)cc(NC(=O)Cn2cc(S(=O)(=O)NC(C)(C)C)c(S(=O)(=O)NC(C)(C)C)c2)c1 | inconclusive [inhibitor, single point] | –
COc1ccccc1/C=N/NC(=O)C(=O)NCc1cccnc1 | – | inactive: -1.21%
O=C(c1ncn(Cc2ccccc2)c1C(=O)N1CCc2ccccc2C1)N1CCc2ccccc2C1 | – | inactive: -21.1%
Cc1cc(C)nc(Nc2ccc(Cl)cc2C)n1 | inconclusive [inhibitor, single point] | –
COc1ccc(NC(=S)NCc2cccnc2)cc1 | – | inconclusive: -34.9% [inhibitor]
CCOC(=O)N1CCN(C(=O)CSc2ccc(-c3cccc(OC)c3)nn2)CC1 | inconclusive [inhibitor, single point] | –
COc1ccc(C(=O)COC(=O)CNC(=O)c2cc(OC)cc(OC)c2)cc1 | – | inactive: -22.3%
COCCN(C(=O)COC(=O)CSc1ccccc1)c1c(N)n(Cc2ccccc2)c(=O)[nH]c1=O | – | inactive: -6.55%
O=C(Nc1ccccc1Cl)C1CCN(c2nc3ccccc3nc2C(F)(F)F)CC1 | – | inactive: -23.2%

SMILES | Potency | activity change, negative = growth inhibition
CCCN1C(=O)c2cc(C(=O)Nc3ccc(OC)cc3OC)ccc2C1Nc1ccc(OC)cc1OC (configuration not stated) | inconclusive [inhibitor, single point] | –
N#Cc1nc(-c2ccc(Cl)cc2)oc1NCc1ccco1 | inconclusive [inhibitor, single point] | –
N/C(=N/O)c1cccn1Cc1ccccc1[N+](=O)[O-] | – | inactive: 1.55%
C/C=C(\C)C(=O)NNC(=O)c1sc(-c2ccccc2)nc1C | – | inactive: -12.1%
Nc1ncnc2c1CN(Cc1ccccc1)CC2 | – | inactive: -2.56%
Cc1ccc(S(=O)(=O)Nc2cccc3ncccc23)s1 | active: 1.03 µM | –
Cc1cccnc1NC(=S)NCCc1ccccc1 | active: 20.6 µM | –
O=C(Nc1ccc(F)c(F)c1)c1cc(S(=O)(=O)NC2CCCCCC2)ccc1F | active: 20.6 µM | –
Nc1nc(N2CCN(c3ccccc3)CC2)n[nH]1 | – | inactive: 1.24%
Cc1ccc(C)c(N2CCN(C(=O)CCc3nc(-c4ccccc4Cl)no3)CC2)c1 | inconclusive [inhibitor, single point] | –
CC1CCCN(CCCNC(=O)c2cc3c(s2)-c2ccccc2OC3)C1 (configuration not stated) | inconclusive [inhibitor, single point] | –
COc1ccc(-n2nc(C(=O)N3CCCC(C)C3)c3c4ccccc4n(C)c3c2=O)cc1 (configuration not stated) | inconclusive [inhibitor, single point] | –
O=C(Cn1nnc(-c2cc(Cl)ccc2-n2cnnn2)n1)N1CCCc2ccccc21 | active: 20.6 µM | –
COc1ccc(CNC(=O)CN2C(=O)COc3ccc(S(=O)(=O)Nc4ccccc4)cc32)cc1 | inconclusive [inhibitor, single point] | –
CCOC(=O)c1cc2c(=O)n3ccccc3nc2n(C(C)C)c1=NC(=O)c1cc2ccccc2o1 | inconclusive [inhibitor, partial curve] | –
C(=N\Nc1nc2ccccc2[nH]1)/C1CCCCC1 | inconclusive [inhibitor, single point] | –
COc1cc(-c2cc(NC(C)=O)c3ncc(-c4ccccc4)n3c2)cc(OC)c1OC | inconclusive [inhibitor, single point] | –
CC1SCC(=O)N(CC(=O)NCCc2ccccc2)C1=O (configuration not stated) | – | inactive: -0.239%
OCCNc1nc(-c2cccnc2)nc2ccccc12 | – | inactive: -18%
Cc1ccc(-c2c(NC(=O)C(C)C)n(C)c3ccccc3c2=O)cc1 | – | inactive: -10.6%
CNC(=O)c1c(NC(=O)c2ccc(S(=O)(=O)N3CCCCC3)cc2)sc2c1CCC2 | inconclusive [inhibitor, single point] | –
CCOC(=O)C1CCN(C(c2cc3cc(C)cc(C)c3[nH]c2=O)c2nnnn2C2CCCCC2)CC1 (configuration not stated) | – | inactive: -8.63%
CCC1CCC2(CC1)NC(=O)N(CC(=O)Nc1cc(C)on1)C2=O (configuration not stated) | – | inactive: -5.59%
Cc1cc(NC(=O)CCCN2C(=O)c3cccnc3C2=O)no1 | active: 25.9 µM | –

SMILES | Potency | activity change, negative = growth inhibition
O=C(O)/C=C/C(=O)c1c(-c2ccccc2)[nH]c2ccccc12 | inconclusive [inhibitor, single point] | –
COc1ccc(-n2ccnc(NCc3ccccc3OC)c2=O)cc1 | inconclusive [inhibitor, single point] | –
COc1cc(/C=N/NC(=O)c2cccc([N+](=O)[O-])c2)ccc1OCc1ccccc1 | inconclusive [inhibitor, partial curve, poor fit] | –
CC(=O)N1CCC2(CCN(Cc3cc(C(F)(F)F)cc(C(F)(F)F)c3)CC2)CC1 | inconclusive [inhibitor, single point] | –
CCOC(=O)c1sc2ccccc2c1S(=O)(=O)Nc1ccc(CC)cc1 | active: 23.1 µM | –
Cn1c(SCC2CCCO2)nnc1C1CCN(Cc2ccccc2O)CC1 (configuration not stated) | – | inactive: -4.83%
Cc1cccc(/C=N/NC(=O)C(C)Nc2cccc3ccccc23)n1 (configuration not stated) | inconclusive [inhibitor, single point] | –
COc1ccccc1OCCCn1cc(C#N)c2ccccc21 | inconclusive [inhibitor, partial curve, poor fit] | –
COc1ccc(-c2cc(=O)[nH]c(NCc3ccccc3)n2)cc1 | inconclusive [inhibitor, single point] | –
COC(=O)C1=CN(Cc2ccc(OC)c(OC)c2)C=C(C(=O)OC)C1c1cccs1 | inconclusive [inhibitor, partial curve] | –
O=C(COc1ccc(Br)cc1)NCc1cn2ccccc2n1 | – | inactive: -4.79%
CCOc1cc(-c2noc(N)c2C#N)cc(OCC)c1OCC | inconclusive [inhibitor, single point] | –
COc1ccc(-c2c(-c3cc(OC)c(OC)c(OC)c3)noc2C)cn1 | active: 891 nM and active: 580 nM | –
CC(C)(C)C(=O)Nc1ccc2nc(SCC(=O)N3CCOCC3)sc2c1 | inconclusive [inhibitor, single point] | –
O=C(CSc1nnc(C2COc3ccccc3O2)o1)N1CCCCC1 (configuration not stated) | – | inactive: -8.85%
COc1ccc(C(=O)C[n+]2ccccc2/C=N/O)cc1 | – | inactive: -13.2%
CCC1CCCCN1Cc1nc2c(c(=O)n(C)c(=O)n2C)n1Cc1cccc2ccccc12 (configuration not stated) | inconclusive [inhibitor, partial curve] | –
C=CCn1c(CCC(=O)Nc2ccc(C)c(Cl)c2)nnc1SCC(=O)Nc1ccccc1C | inconclusive [inhibitor, single point] | –
N#Cc1ccccc1NC(=O)CNc1ccccc1N1CCCCC1 | inconclusive [inhibitor, single point] | –
COCCCNC(=O)/C(C#N)=C/c1c(N2CCN(c3ccccc3)CC2)nc2c(C)cccn2c1=O | active: 16.4 µM | –
O=S(=O)(Nc1cc(F)ccc1F)c1ccc2[nH]c3c(c2c1)CCCC3 | inconclusive [inhibitor, partial curve] | –
CCn1ncc(Br)c1C(=O)N(C)C12CC3CC(CC(C3)C1)C2 | inconclusive [inhibitor, single point] | –
O=C(Cc1ccc(Br)cc1)Nc1cccc(S(=O)(=O)N2CCOCC2)c1 | – | inactive: -23.1%
NS(=O)(=O)c1ccc(CCNc2nccn(-c3cccc(C(F)(F)F)c3)c2=O)cc1 | inconclusive [inhibitor, partial curve] | –
